{
  "source": "paper PMC7819943",
  "about": "“Rice protein-binding microarrays: a tool to detect cis-acting elements near promoter regions in rice”",
  "note": "The list shows a part of the results.",
  "data": [
    {"target": "T1, OsWOX13 (Oryza sativa, UniProt Q5QMM3 1-267)", "T1 sequence": "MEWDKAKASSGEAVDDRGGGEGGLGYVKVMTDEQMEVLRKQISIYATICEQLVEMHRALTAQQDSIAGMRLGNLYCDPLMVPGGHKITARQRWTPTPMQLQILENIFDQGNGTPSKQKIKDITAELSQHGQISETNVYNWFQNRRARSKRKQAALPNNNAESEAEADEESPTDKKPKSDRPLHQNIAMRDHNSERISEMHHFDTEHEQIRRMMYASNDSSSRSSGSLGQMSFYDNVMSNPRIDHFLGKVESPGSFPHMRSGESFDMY", "experiment": "protein-binding microarray (RPBM); PBS, 2% BSA, 51.3 ng/ul salmon testes DNA, 50 uM zinc acetate, 200 nM TF, 25 C, 1 h; high values mean tight binding", "settings": "protein: recombinant; tags: N-terminal polyhistidine and DsRed monomer fusion (pET32a); label: CyDye5-dUTP incorporated in the synthesized complementary strand; 3' TTTTT single-stranded linker to array surface; dsDNA, one strand shown", "how_it_was_run": "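An Axon 4000B scanner gave the binding signal as per-feature fluorescence intensity in arbitrary units. This followed washing of a custom Agilent array that had been incubated for 1 h at 25 °C with 200 nM protein in PBS, 2% BSA, salmon testes DNA and 50 µM zinc acetate. The proteins were transcription factors fused at the N-terminus to polyhistidine and DsRed, expressed in E. coli BL21-CodonPlus and purified on Ni–NTA.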", "values": [
      {"sequence": "ACTGATTATTATATAAATTTGAGCATATTTATTTACATTACGGAGTCACCTAGTGCAG", "binding signal": "38600 fluorescence intensity (a.u.)"},
      {"sequence": "TCTAAAATTAAGTTTTAAAACTTAAATTCGGTTGTGGCTGCGGAGTCACCTAGTGCAG", "binding signal": "7170 fluorescence intensity (a.u.)"},
      {"sequence": "TGGACCGAAAATTGATAAGTAGACTTATTAGGAGGTTGATCGGAGTCACCTAGTGCAG", "binding signal": "7240 fluorescence intensity (a.u.)"},
      {"sequence": "TTGCTAAATTGTTCTATAAACTTTGTCAAACTTAACTAGGCGGAGTCACCTAGTGCAG", "binding signal": "9210 fluorescence intensity (a.u.)"},
      {"sequence": "CCCAGTCAATCTCCCCATCTCCTCGGCCTCGGCAATAGTACGGAGTCACCTAGTGCAG", "binding signal": "7200 fluorescence intensity (a.u.)"},
      {"sequence": "TGTAGTCTGCAGGTGATTGAAACCATCTGTAATACAATAACGGAGTCACCTAGTGCAG", "binding signal": "7410 fluorescence intensity (a.u.)"},
      {"sequence": "TAGGTAATAAATATGCAACAATTGACATATTTCTACCCGCCGGAGTCACCTAGTGCAG", "binding signal": "3330 fluorescence intensity (a.u.)"},
      {"sequence": "TCTTAATCATCCAGCATTTGATAAACTTTGGCACATTTCTCGGAGTCACCTAGTGCAG", "binding signal": "4500 fluorescence intensity (a.u.)"},
      {"sequence": "AACACAAAATTGATGTTAAAGTTTAACCAAACCATTATCTCGGAGTCACCTAGTGCAG", "binding signal": "7820 fluorescence intensity (a.u.)"},
      {"sequence": "ACGCAAATGATTGTGTGTAGATCGATCGATCTGTTACTACCGGAGTCACCTAGTGCAG", "binding signal": "12800 fluorescence intensity (a.u.)"},
      {"sequence": "ATTGTATGAATTAGCTATTAAATTGACTATATATATGATTCGGAGTCACCTAGTGCAG", "binding signal": "13500 fluorescence intensity (a.u.)"},
      {"sequence": "ATTTGTAATTACATGTTAATTATAATGTAATCATATTATACGGAGTCACCTAGTGCAG", "binding signal": "31100 fluorescence intensity (a.u.)"},
      {"sequence": "TTAATTTGTCACCGAGTAGGAAATTCATCCATGGACTGCACGGAGTCACCTAGTGCAG", "binding signal": "3290 fluorescence intensity (a.u.)"},
      {"sequence": "GTTTACAATAATTAATATCCAATTAATCATGCACTAATAACGGAGTCACCTAGTGCAG", "binding signal": "24500 fluorescence intensity (a.u.)"},
      {"sequence": "ATCCATGGTTATTTGATTGATGGATATCTATCTTCTCTTGCGGAGTCACCTAGTGCAG", "binding signal": "32800 fluorescence intensity (a.u.)"},
      {"sequence": "TCCTTGATGGTTATCTAAATTTATATCAGATATATTGAGTCGGAGTCACCTAGTGCAG", "binding signal": "23600 fluorescence intensity (a.u.)"},
      {"sequence": "AACCACGTTGATTATCCCGAGTTCCCGACACCGTTGGAAACGGAGTCACCTAGTGCAG", "binding signal": "6200 fluorescence intensity (a.u.)"},
      {"sequence": "GTTATAACAAATTTGTTTTGCGTGGTTTATTGTAAAATTACGGAGTCACCTAGTGCAG", "binding signal": "12700 fluorescence intensity (a.u.)"},
      {"sequence": "CTAACCTATTAATCAAATTACTAGCATCTGAAATCAACGCCGGAGTCACCTAGTGCAG", "binding signal": "10300 fluorescence intensity (a.u.)"},
      {"sequence": "CGGATTGGGAGTAATTAATTACTCCTACTACTACTAGTGTCGGAGTCACCTAGTGCAG", "binding signal": "42000 fluorescence intensity (a.u.)"},
      {"sequence": "GAGTTATTTATGATTTGTATTCCCAAGGCTTGACTTAAACCGGAGTCACCTAGTGCAG", "binding signal": "7160 fluorescence intensity (a.u.)"},
      {"sequence": "TTTTATTGATTACGGAAAAGAGGATTACATTCTTGGTCTACGGAGTCACCTAGTGCAG", "binding signal": "24800 fluorescence intensity (a.u.)"},
      {"sequence": "CAAATTTTAAATAGTTTTAAATTCCTATATAGACACTGTACGGAGTCACCTAGTGCAG", "binding signal": "3180 fluorescence intensity (a.u.)"},
      {"sequence": "TCATGATTAAGATGGGCTCACTATGTAATTTTATTTATAACGGAGTCACCTAGTGCAG", "binding signal": "8240 fluorescence intensity (a.u.)"},
      {"sequence": "GCCAAGCTTAATTAATTATGCCAAAGAATCATCGCACTATCGGAGTCACCTAGTGCAG", "binding signal": "19400 fluorescence intensity (a.u.)"},
      {"sequence": "ATTTAAAATTACAAAATAATTAATAACTATCATGTATTTACGGAGTCACCTAGTGCAG", "binding signal": "7060 fluorescence intensity (a.u.)"},
      {"sequence": "GTGATACGAAATAGATTGGACCAATATTATTCCTAATACACGGAGTCACCTAGTGCAG", "binding signal": "19700 fluorescence intensity (a.u.)"},
      {"sequence": "TTTTGACTGTGAATATCTACTACTTACATAACAAAGGAGGCGGAGTCACCTAGTGCAG", "binding signal": "6920 fluorescence intensity (a.u.)"},
      {"sequence": "TAGTCTTGATCAATCTCAATCAATCACCATTTACCAAGTACGGAGTCACCTAGTGCAG", "binding signal": "34400 fluorescence intensity (a.u.)"},
      {"sequence": "GACGGCAGATTGGCAAGTATAATTGGGCGATGCACATAAGCGGAGTCACCTAGTGCAG", "binding signal": "25800 fluorescence intensity (a.u.)"},
      {"sequence": "AGGAATATATATAATTTACAAATAACTAAAATTTGGTATTCGGAGTCACCTAGTGCAG", "binding signal": "3360 fluorescence intensity (a.u.)"},
      {"sequence": "CATTCAGTAAAGCCAAATTAATTGAAACATGATCCGAGTCCGGAGTCACCTAGTGCAG", "binding signal": "3950 fluorescence intensity (a.u.)"},
      {"sequence": "CCGTGATTTGAATGGAGGGTAGATCTCGAGAGGGAGGGAACGGAGTCACCTAGTGCAG", "binding signal": "38600 fluorescence intensity (a.u.)"},
      {"sequence": "TACCTATGTTAATGTACAATTAGAGCTTCTAGACTATATCCGGAGTCACCTAGTGCAG", "binding signal": "4520 fluorescence intensity (a.u.)"},
      {"sequence": "ACAAATTAGTTAAACTTGCACCTTTCTTGTTGCTACCTCACGGAGTCACCTAGTGCAG", "binding signal": "15300 fluorescence intensity (a.u.)"},
      {"sequence": "AGGATTGAAGCTTTCCAAATCCTATGAAATTCTTATGGAACGGAGTCACCTAGTGCAG", "binding signal": "3930 fluorescence intensity (a.u.)"},
      {"sequence": "GAGAAACTAAATTTGCACAATTTTCATTATCAACAGTTACCGGAGTCACCTAGTGCAG", "binding signal": "8640 fluorescence intensity (a.u.)"},
      {"sequence": "TCTAATGATGATTGTAAGCCGTACAATTTACTAAAAGATACGGAGTCACCTAGTGCAG", "binding signal": "15000 fluorescence intensity (a.u.)"},
      {"sequence": "ATAAGTTAATTTAGTATGGGATGCGACATCTGTTAGTACTCGGAGTCACCTAGTGCAG", "binding signal": "5560 fluorescence intensity (a.u.)"},
      {"sequence": "ATATGATGGAAATCATGTGGTACCATCTACATAAATAAAACGGAGTCACCTAGTGCAG", "binding signal": "12400 fluorescence intensity (a.u.)"},
      {"sequence": "CACTATTATGTATGCAGTTTAATTTAATGATCATAATAGTCGGAGTCACCTAGTGCAG", "binding signal": "3770 fluorescence intensity (a.u.)"},
      {"sequence": "TATTAAATTACATGTCCTTGCAGAAGAAGTTGACATTGGCCGGAGTCACCTAGTGCAG", "binding signal": "11700 fluorescence intensity (a.u.)"}
    ]}
  ]
}
